# Test results: the supplement of paper PMC11417369
# This is one part of the list.
# Test system: PfSIP2 AP2 domain 1 (GST-tagged)
# Experiment: gcPBM binding intensity (ln(normalized median fluorescence intensity)); higher = stronger DNA binding
# Outline: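 GST-tagged P. falciparum DNA-binding domains produced in E. coli were incubated for 1 h on an Agilent 4 × 180k array of primer-extended double-stranded 36-bp intergenic genomic probes with negative controls. Binding intensity is the highest Masliner-normalised natural-log median intensity across replicate spots of either probe orientation, with bound protein detected by Alexa488 anti-GST antibody at 488 nm.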
row,Sequence,gcPBM binding intensity (ln)
1,AAAAAAGCAATATGATGTACATTTACTTTGTGAAAG [XGTACX_site4450],6.84
2,CTAGGTATGCTTTAAACATGCAAAAATACAAATTAC [TGCATGCA_site239],6.87
3,ATATATAAATATATTTGTACATATAATATGTATTAT [XGTACX_site8820],7.24
4,TTTTGTTATAATAAAGTGCATTTAGTCGGGTTACAA [GTGCAC_site9779],9.07
5,AAATATTATAAAAAGGTGCATTTTTATTATATGAGT,11
6,AATTTAAAAAAAATCACACACAGAAAAAAAAAAAAA [CACACA_site2322],6.93
7,ATATATGTTTTTATATGTACTTATAATGTGTGTATA [XGTACX_site5165],7.47
8,TTCTGACCAATGCTATAAAATAATACAAAAGAAAAA [GTGCAC_negctrl_site3],7.25
9,TGAAGAGGAAACAAACAAAATGAATAATTAAAAAGG [CACACA_negctrl_site1601],7.28
10,TATATCCACATTTTTAGTACTTAAAAATAAATAAAC [XGTACX_site3826],7.37
11,TTATAATCAATGAATACACACATATATTTCATTAAT [CACACA_site5909],6.82
12,TAATAATAGAGACACACACACATAGACATATAAATA [CACACA_site6729],6.97
13,ATCTATGAAAAAGGTACATGCAATAAAGAAACATAT [TGCATGCA_site805],7.15
14,TTATACTATTTTTATACATGCATTTCTATATATTTT [TGCATGCA_site316],7.38
15,TTCAAAATAAAAAATTCACACACATATATATATATA [CACACA_site8653],9.18
16,ATTTATTAAATTTATAGTACTCAAAGATTTTTATTT [XGTACX_site6661],6.79
17,AAATAAAACAATTAACGTACAAGCATATATATATAT [XGTACX_site8508],9.4
18,TATGTATAATTATTTTGTACTTATTAAATTTTTTTT [XGTACX_site5413],6.67
19,TATATATATATTATATGTACACAAGGAAATATGCAT [XGTACX_site5637],8.78
20,AAATAAAAAAAAATAGCACACATAAATATATTATAT [CACACA_site8155],6.86
21,ATTATTCATTTATGTAGTACATTTTAATACATTTAA [XGTACX_site3599],7.23
22,AAGAAAAATTTAAACTGTACTTGTTTTCCAATGAAC [XGTACX_site4443],6.95

row,Sequence,gcPBM binding intensity (ln)
1,AAAAAAAAAAAAGTTACACACAAATAAAATATTTGG [CACACA_site694],7.13
2,ATAAAAAAAAATAAATGTACAAATTAACAAAATAAT [XGTACX_site5048],7.22
3,AATCACCAAATATGTACACACCTTAACATGTTTATA [CACACA_site5180],7.45
4,ATCTAAACAAATAATACACACAATAAAATAGGAAGA [CACACA_site4072],7.34
5,TGTGAATAAATAAGCACACATAAACCCATATATAAA [CACACA_site4103],7.06
6,TAATATTTACATATTACACACACGTATTATTAAATA [CACACA_site6340],6.92
7,TATTTTTTAAAAATGGGTACACATAAATAAATAAAT [XGTACX_site7643],7.56
8,AAAATATGTAGACACATACACACATATATATATATA [CACACA_site1221],9.8
9,TTTTTTTTTTCAAATGCATGCAAAAAAAAAAAAATA [TGCATGCA_site945],6.97
10,TATATGTATGTTTGTTTGTTTGTATTTTTTAAGGTA [XGTACX_negctrl_site619],6.93
11,TTTTCTTTTTCCAAAAGTACGTAATTTAAACATTTT [XGTACX_site2066],6.76
12,AAATTAGAAATACCTACACACTTATCAAAATAAATT [CACACA_site7132],6.81
13,ATAATTATGAAGCATACATGCATGTCCTGGCTTAAA [TGCATGCA_site491],6.9
14,TTATAATATGGATACACACACATATATAAATATATA [CACACA_site5314],6.98
15,AAAAAATAAATAAATACACACAAATCTATATTTATA [CACACA_site7243],6.76
16,ATCTAAATTTTTCCATGTACATATACTTTTATGCAT [XGTACX_site2683],7.46
17,GCAAGGAAATAATTGATAATATATATATATATATAT [GTGCAC_negctrl_site400],9.31
18,GAGTAAATAAATAAATGTACATATATATATATTATC [XGTACX_site8466],7.27
19,ATACATAAATATTGATGTACTCATTTAATATATTAT [XGTACX_site3992],6.87
20,AATATATATATATATATATATTTTTGTTAGAATATG [XGTACX_negctrl_site58],7.88
21,TATAATAAATATTAACGTACTCATATATATATATAT [XGTACX_site3871],9.04
22,CTAAAATACGGACACACACACACATATATATATATA [CACACA_site6138],9.61
